Assay results reported in the RNAGym collection of RNA variant scans (doi:10.1073/pnas.2313332121).
Variants at the background level are over-represented here.

B1: TPR 5TU (parent)
chain: GGAUCUUCUCGAUCUAACAAAAAAGACAAAUCUGCCACAAAGCUUGAGAGCAUCUUCGGAUGCAGAGGCGGCAGCCUUCGGUGGCGCGAUAGCGCCAACGUUCUCAACUAUGACACGCAAAACGCGUGCUCCGUUGAAUGGAGUUUAUCAUG

Variants of: B1
Experiment: polymerase ribozyme fitness, log enrichment relative to wild type (log ratio); higher = more active; in vitro selection for triplet polymerase activity
Summary of the method: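 Each subunit of a heterodimeric triplet polymerase ribozyme was mutagenized into a library by PCR, transcribed, and subjected to one round of in vitro selection, run in triplicate. Libraries were annealed with a biotinylated primer, the partner subunit and triplets, incubated frozen at −7 °C, and extended constructs were gel-excised, captured on streptavidin beads and recovered by RT-PCR. Input and output libraries were sequenced on Illumina, keeping genotypes with ≥10 input reads and ≥1 read per output. Fitness is log base 2 of genotype enrichment divided by wild-type enrichment, from inverse-variance-weighted replicate averages.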

| Variant | polymerase ribozyme fitness (log ratio) |
| --- | --- |
| A73C G86U | ≤ -4.2 |
| C76A C87U C114U U151G | ≤ -4.2 |
| G74C C76A C87U C114U C116U | ≤ -4.2 |
| A73U C103G | ≤ -4.2 |
| G80C C85U A97C C99A G141U | -3.93 |
| G71U C76A G80C | ≤ -4.2 |
| G74A U127A | ≤ -4.2 |
| C76U G84C | -1.35 |
| C72U A122G | -0.726 |
| C76G G88C A121G | ≤ -4.2 |
| C79A C99U U111A A147C | ≤ -4.2 |
| U77C G86C C105A A119U | ≤ -4.2 |
| C75G C93A G124U | ≤ -4.2 |
| A73G G126C | 0.529 |
| C76A G83A A91U A106C C108A U130A | ≤ -4.2 |
| U77A U135A | ≤ -4.2 |
| G80A C87U A89C C99A A120U | -2 |
| U77C C116A C123U | ≤ -4.2 |
| U77G C99U G128U A137U | ≤ -4.2 |
| C76A U109G G143A U146A | ≤ -4.2 |
| U77C A91U | ≤ -4.2 |
| G74U G81U G88C A89G C95U G128U U148A | ≤ -4.2 |
| U78C G84U C99G A113U A115C G117U U135C U144A U148G | ≤ -4.2 |
| G80A G124A | 0.289 |

| Variant | polymerase ribozyme fitness (log ratio) |
| --- | --- |
| U78C A142U | -1.72 |
| U78C A142G | -1.33 |
| C79G G88A G94A | ≤ -4.2 |
| C75G C85U A106C A115G G141U | ≤ -4.2 |
| C76U U90C U111C | ≤ -4.2 |
| C79G G81U G133A | ≤ -4.2 |
| U78G G92U | ≤ -4.2 |
| G74A A106C A142C | ≤ -4.2 |
| C76G G124U G141C | ≤ -4.2 |
| C72U C79A C108U C123G G140U | ≤ -4.2 |
| G71C C95U C132U G141A U146G | ≤ -4.2 |
| U78G C114U C125A C149U | ≤ -4.2 |
| A73G C95U | -0.166 |
| C75A A91C | ≤ -4.2 |
| C76A U135C | -1.96 |
| A73G C87U U102A | ≤ -4.2 |
| C72G C85G | ≤ -4.2 |
| U77C C93A A98U C125A U139G | ≤ -4.2 |
| C79U G83C G84C C108U | ≤ -4.2 |
| G81A C131G G140C | -4 |
| C75G C103A U127C | ≤ -4.2 |
| C72U A147U | 0.651 |
| U77G A98G C116U | ≤ -4.2 |
| A73G G83U G84U | -1.48 |

| Variant | polymerase ribozyme fitness (log ratio) |
| --- | --- |
| G80U C85A | -2.27 |
| C79U C87A | ≤ -4.2 |
| C75A C76U G86U A106U G126A U148C C149A | ≤ -4.2 |
| G80C G94U U134A | ≤ -4.2 |
| C79G C96U A138U | ≤ -4.2 |
| C72U C85A U102G G141A | ≤ -4.2 |
| C75A C95U | ≤ -4.2 |
| U77C G92U A97G | ≤ -4.2 |
| C75G G92C C123A | ≤ -4.2 |
| C79G C93G | ≤ -4.2 |
| C79G G124U U139C | ≤ -4.2 |
| A73G C118G C132G | ≤ -4.2 |
| U77A G88U A120U G140C | ≤ -4.2 |
| U77C G92C | -3.48 |
| A73G A107U | -4.1 |
| C72A G94C | ≤ -4.2 |
| C75U G86C G100A G117U | ≤ -4.2 |
| G80A C85A | -0.619 |
| C75U G94C G100U A107G | ≤ -4.2 |
| C79G G88C C95U A98G A115G G136C A142U | ≤ -4.2 |
| G71U G83C | -2.74 |
| A73U A91C U145G | ≤ -4.2 |
| A73U G84A G92A A122C U134A | ≤ -4.2 |
| U77A A98U C116U A147U | ≤ -4.2 |

| Variant | polymerase ribozyme fitness (log ratio) |
| --- | --- |
| A73U G94A G152C | ≤ -4.2 |
| C76A C85A C87U A110C | ≤ -4.2 |
| C75U U111G U146G | ≤ -4.2 |
| C76G C96U A98C U101C | ≤ -4.2 |
| G81A C103A | -1.13 |
| C72A G81U G83C C93U | ≤ -4.2 |
| C76A G88C A89U U101C C114U | ≤ -4.2 |
| U77G | ≤ -4.2 |
| U77A | ≤ -4.2 |
| U77C | -2.04 |
| C75G A142U | -3.7 |
| C79U C93U C95U | -4.08 |
| C72G G81U C87A C95U U104A | ≤ -4.2 |
| A73U C99G A106G G140A U144G A147C | ≤ -4.2 |
| A73G C85A | -1.22 |
| U78C U109G A137C A147U | ≤ -4.2 |
| G80A U146G U148C | -3.91 |
| U77G C116U U130G | ≤ -4.2 |
| C75G C85G G124A | ≤ -4.2 |
| U78G U127A | ≤ -4.2 |
| C72U A89G A137U | ≤ -4.2 |
| C75G G86C C87U | ≤ -4.2 |
| C76U C85A G141C U148C | -3.74 |
| C76U G84A U104G U151C | ≤ -4.2 |

| Variant | polymerase ribozyme fitness (log ratio) |
| --- | --- |
| C75G C79A C87U A89G A91G | ≤ -4.2 |
| C76A U151A | ≤ -4.2 |
| C75U G80C A91G A97U A122G | ≤ -4.2 |
| G74U C87A C95U C105U | ≤ -4.2 |
| A73C C99G U104A A106G | ≤ -4.2 |
| C79U G83A C85A U148A | ≤ -4.2 |
| C75G U101G C103G C123U A137C A138C | ≤ -4.2 |
| C79U C105G | ≤ -4.2 |
| G80U G81C G84U A89U A97U G100A G126U | ≤ -4.2 |
| C72U U134A | -2.32 |
| U77A G88A | ≤ -4.2 |
| U78C C85A C93U G117A U145A C149U | ≤ -4.2 |
| C75A A121U U145C | ≤ -4.2 |
| C75U C85U U111G A121U G152A | ≤ -4.2 |
| G71C G83U G141A A147C C149A | ≤ -4.2 |
| C79U C85U | -1.94 |
| C79U C85A | ≤ -4.2 |
| C75U A122G G124A C149U | -1.15 |
| G74A A115G G143U | ≤ -4.2 |
| G80A A91G A106C C108U G133C | ≤ -4.2 |
| G74U C93G | ≤ -4.2 |
| C76A G88C G92C A98G U102A C131G | ≤ -4.2 |
| G81A G86A U148A | -3.94 |
| A73G C85U C96G C108G U127G G136C | ≤ -4.2 |

| Variant | polymerase ribozyme fitness (log ratio) |
| --- | --- |
| A73U C75U G84A C95G U102A G136C G143C | ≤ -4.2 |
| U78A A91U | ≤ -4.2 |
| A73U C96G | -1.8 |
| C79G C93A C95A C125G C131U | ≤ -4.2 |
| C72G A91C | ≤ -4.2 |
| G74C A150C | ≤ -4.2 |
| C72G U78A G86A C93A A98G C99U G100C C131U | ≤ -4.2 |
| U77A A107U U146C | ≤ -4.2 |
| G71C U82C | -2.48 |
| G80A G81A A120C | -0.393 |
| G74A C85G | -3.83 |
| G80U G84C C116G U148C | ≤ -4.2 |
| U77G C99A G140A | ≤ -4.2 |
| C76G G84A A122G | ≤ -4.2 |
| C76G C93G C103U | ≤ -4.2 |
| C75A U135C | ≤ -4.2 |
| U77G G92U A115U | ≤ -4.2 |
| C72U G124U A142G | -2 |
| C76A G80C G141C | ≤ -4.2 |
| C76G C149A G152U | ≤ -4.2 |
| U77A G83U U134A | ≤ -4.2 |
| U77G G80C C96U | ≤ -4.2 |
| C75G G94A | -4.08 |
| C75G G94C | -3.53 |

| Variant | polymerase ribozyme fitness (log ratio) |
| --- | --- |
| C79U A91U C105G C108G A138G | ≤ -4.2 |
| U77G C87G C99G | ≤ -4.2 |
| G81A C87U A97U | -1.53 |
| C76A C79A G86A G92A U151A | ≤ -4.2 |
| C72A C85A A147G G152U | ≤ -4.2 |
| C76U A89G | -1.03 |
| C75G A122C G143A | ≤ -4.2 |
| C76A C96A A107C U109G | ≤ -4.2 |
| C75G U77G G92C U148C | ≤ -4.2 |
| A73G A89U | -0.161 |
| U77A G94A C95G G141U G152U | ≤ -4.2 |
| G80U U90A A138G | ≤ -4.2 |
| C76G C96U U104A A106U C125U | ≤ -4.2 |
| C75G G92U C103G A122C | ≤ -4.2 |
| C79A U90G C95A C99U C118G A119U | ≤ -4.2 |
| C72G A122G G141U | ≤ -4.2 |
| U77G U144G | ≤ -4.2 |
| C72G C132U | ≤ -4.2 |
| G74C C96U A119G U145G | ≤ -4.2 |
| C79U U90A A106U | ≤ -4.2 |
| C76A C96A G128C | ≤ -4.2 |
| G81A A115U A142U | -2.42 |
| C72U C87U A89G C105A U127C A138C G140C | ≤ -4.2 |
